This is an account of results in ChEMBL document CHEMBL4888484, “Replenishing the malaria drug discovery pipeline: Screening and hit evaluation of the MMV Hit Generation Library 1 (HGL1) against asexual blood stage Plasmodium falciparum ,using a nano luciferase reporter read-out” (2022).

The structures appear in SMILES notation. The whole screen tested about 150,000 compounds, of which about 540 (0.36%) showed an effect of 50% or more. The list shows a part of the results.

A word on the % Inhibition: it is the relative decrease from the control value, in per cent.

The test system of this assay is Plasmodium falciparum. The assay can be described thus: Primary screen in NF54 nanoGlo assay, in single point, at 2uM, 72h; a lower Z score goes with more inhibition. Format: functional, Erythrocyte. The note with it: timepoint 72 hour.
Regarding `Cc1cccc(N2CCN(c3nc4ccccc4c(=O)n3Cc3ccccc3)CC2)c1C`, the “% Inhibition” value is recorded as -12% and the Z score was 1.61.

With `N#Cc1cccc(OCCn2nnc3ccccc3c2=O)c1`, the “% Inhibition” value is listed as 1% and the Z score was -0.08.

As to `O=C(c1ncoc1[C@@H]1CCCO1)N1CC(Cc2ccc(F)c(F)c2)C1`, the “% Inhibition” value came to 28% and the Z score was -3.18.

`O=S1(=O)CCN(c2cc(NCc3ncc[nH]3)ccc2F)CC1`: the “% Inhibition” value is -5% and the Z score was determined as 0.45.

Take `O=C(Nc1ccnn1C1CCN(Cc2ccccc2)CC1)[C@H]1CCOC1`: the “% Inhibition” value is -10% and the Z score is reported as 1.08.

Consider `CCC(=O)NCCn1cnc(-c2ccccc2)c1-c1ccc2nonc2c1`, for which the “% Inhibition” value is given as -10% and the Z score amounted to 1.88.

For the compound `O=C(CN1CCN(C(=O)Nc2ccccc2)CC1=O)NCc1ccccc1Cl`, the “% Inhibition” value is recorded as -22% and the Z score is on record as 2.79.

For the compound `CC(=O)N1CCCN(c2nc(C3CCOCC3)nc3c2cnn3-c2ccccc2)CC1`, the “% Inhibition” value is reported as -12% and the Z score came to 1.34.

As for `Cc1ncc(CCNCc2cc(F)cc(F)c2)s1`, the “% Inhibition” value is reported as 8% and the Z score was -0.93.

Take `CC(C)[C@H](CNC(=O)N1CCC2(CCCC2)C1)c1ccnn1C`: the “% Inhibition” value is on record as -13% and the Z score is reported as 1.72.

For `CCc1ccccc1S(=O)(=O)NCc1oc(C)nc1C`, the “% Inhibition” value came to 16% and the Z score is listed as -1.84.

Regarding `Cc1c(F)cccc1CN1C[C@@H](C(=O)O)C[C@H](C(=O)Nc2ccc(F)cc2)C1`, the “% Inhibition” value is on record as 13% and the Z score is reported as -1.77.

With `CC1(C)NC(=O)N(CC(=O)N2CCC[C@H]2c2ccc3c(c2)OCCCO3)C1=O`, the “% Inhibition” value is -13% and the Z score was determined as 1.7.

For `C[C@@H](CC1CN(C(=O)OC(C)(C)C)C1)NC(=O)c1ncccc1F`, the “% Inhibition” value is -10% and the Z score is given as 1.31.

Turning to `CC(Cc1ccccc1Cl)C(=O)NCC1CCC2(CCOCC2)C1O` (stereo not drawn), the “% Inhibition” value is 2% and the Z score is given as -0.26.

For `OCc1ccc2c(c1)CN(c1ncnc3[nH]cnc13)CCO2`, the “% Inhibition” value is reported as -6% and the Z score worked out at 0.58.

As to `O=C(Cn1c(=O)c2nncn2c2ccccc21)Nc1ccccc1F`, the “% Inhibition” value is on record as -5% and the Z score is 0.52.

In the case of `Cc1csc(NC(=O)Nc2cccs2)n1`, the “% Inhibition” value came out at 7% and the Z score is given as -0.94.

As for `c1ccc(CNc2ccc3nnnn3n2)nc1`, the “% Inhibition” value is reported as -15% and the Z score came out at 2.07.

For `CC[C@@H](CCO)NCc1ccc(Cl)cc1F`, the “% Inhibition” value is given as -15% and the Z score was 1.9.

As to `CC1(C)OCC2CC21NC(=O)Nc1ccc(F)c(C2CC2)c1` (stereo not drawn), the “% Inhibition” value was -5% and the Z score is 0.47.

In the case of `CCS(=O)(=O)N1CCN(c2nc3ccccc3c3nnc(-c4ccccc4C)n23)CC1`, the “% Inhibition” value was -2% and the Z score is given as 0.25.

For the compound `C[C@@H](C(=O)N1CCC(Cc2ncc[nH]2)CC1)N(C)CC(F)(F)F`, the “% Inhibition” value is recorded as -10% and the Z score was found to be 1.38.

Turning to `Cc1cc(N2CCN(C)[C@]3(CCC(=O)N(C)CC3)C2)nc(-c2ccccc2)n1`, the “% Inhibition” value is 1% and the Z score is on record as -0.1.
